# Results: PubChem BioAssay AID651820 (National Center for Advancing Translational Sciences (NCATS), 2012)
# Several values for one entry are separate records, joined by “and”; a condition that tells them apart may be missing. Equal values may be shown once. About 12,000 (3.5%) of roughly 340,000 compounds were called active. The inconclusive results got no clear call from the source; some entries with a clear call stand among them for comparison. The call rests on the fitted dose curve; in most records, active means well fitted inhibition curve with a large enough effect; inconclusive means small, poorly fitted or top-dose-only effect, or another doubt; inactive means no such curve, though single readings can be large or run the other way. A potency beside an inconclusive call is a rough fit, not a confirmed value.
# Experiment: qHTS Assay for Inhibitors of Hepatitis C Virus (HCV)
# Settings: Huh7.5.1 HCVcc-Cre (HCVcc is cell-culture hepatitis C virus) infection, luciferase reporter, 44 h; series mostly up to 41.8 µM
# Summary of the method: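 Cells (1,000/well) were plated 4 h before compound, then infected with HCVcc-Cre virus (~0.5 moi). After 44 h further culture, infection was read as luciferase luminescence following a 15 min substrate incubation at room temperature.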
# Potency means the concentration at half of the fitted maximal effect; tags describe the fitted curve by direction and shape.
row,SMILES,Potency
1,COc1cc(CNC(C)(C)C)cc(Br)c1OCc1cccs1,active: 20 µM
2,O=C(Nc1ccccc1)N1CCN(c2ccc(C(F)(F)F)cn2)CC1,"inconclusive: 31.6 µM [inhibitor, single point]"
3,N=c1c(C(=O)NC2CCCCC2)cc2c(=O)n3ccccc3nc2n1CCc1ccccc1,"inconclusive: 0.891 µM [inhibitor, full curve]"
4,Cc1cc(C)n2nc(C)c(-c3ccccc3)c2n1,inactive
5,COc1cc2ccccc2cc1C(=O)Nc1cccnc1,active: 31.6 µM
6,CCCc1cc(=O)oc2cc(C)c(CN3CCCC3)c(O)c12,"inconclusive: 2.24 µM [inhibitor, partial curve]"
7,COc1ccc(N2C3=C(CC4=C2CCCC4=O)C(=O)CCC3)cc1,"inconclusive: 12.6 µM [inhibitor, partial curve]"
8,O=C(NCc1cccnc1)c1cccnc1-c1nc2ccccc2s1,inactive
9,CCOC(=O)c1csc(NC(=O)c2ccc3c(c2)OCCO3)n1,active: 14.1 µM
10,Cc1ccc(C(=O)CC(=O)c2cccc(F)c2)c(O)c1,"inconclusive: 31.6 µM [inhibitor, single point]"
11,COc1ccccc1C(=O)COC(=O)c1cnc(C)cn1,inactive
12,O=C(NC1CCN(Cc2ccccc2)CC1)C1CCN(S(=O)(=O)c2ccc(Cl)cc2)CC1,active: 10 µM
13,CN1CCN(S(=O)(=O)c2ccc(N3CCN(c4ccccc4O)CC3)c([N+](=O)[O-])c2)CC1,"inconclusive: 31.6 µM [inhibitor, single point]"
14,CCn1c(=O)cc(SCC(=O)N2CCCCC2)c2ccccc21,"inconclusive: 22.4 µM [inhibitor, single point]"
15,COc1ccc(N/C=C/C(=O)c2cc(OC)c(OC)c(OC)c2)cc1,inactive
16,COc1ccc(NC(=O)CN(C)C(=O)c2cc(-c3ccc(Cl)cc3)nc3ccccc23)cc1,"inconclusive: 31.6 µM [inhibitor, single point]"
17,Cc1ccc(Cl)cc1N1CCN(CCN)CC1,active: 10 µM
18,Cc1ccc(C)c(NS(=O)(=O)c2ccc(-c3coc(C)n3)cc2)c1,"inconclusive: 31.6 µM [inhibitor, single point]"
19,COc1cccc(CNC(=O)CCCSc2ccccc2)c1,"inconclusive: 5.01 µM [inhibitor, single point]"
20,Cc1ccc(C(=O)NNC(=O)COc2ccc(Cl)cc2C)o1,inactive
21,CN(C)c1cc[n+](Cc2ccccc2)cc1,active: 0.891 µM
22,Cc1ccc(NC(=O)Cc2nc(-c3c[nH]c(C(=O)N4CCCC4)c3)cs2)c(C)c1,"inconclusive: 11.2 µM [inhibitor, partial curve]"
23,Oc1ccc(CN2CCC(Cc3ccccc3)CC2)c2cccnc12,"inconclusive: 22.4 µM [inhibitor, single point]"

row,SMILES,Potency
1,COc1ccc(N2CCN(c3ccnc4cc(Cl)ccc34)CC2)cc1,"inconclusive: 31.6 µM [inhibitor, single point]"
2,Cc1ccc(C)c(-c2nc3ccc(N)cc3[nH]2)c1,"inconclusive: 10 µM [inhibitor, partial curve]"
3,CCOc1ccc(N(C)S(=O)(=O)c2cc(-c3cc(C)no3)ccc2C)cc1,"inconclusive: 8.91 µM [inhibitor, partial curve]"
4,Cc1nn(CC2CC2)c(=O)n1-c1ccc(Oc2ccccc2)cc1,"inconclusive: 31.6 µM [inhibitor, single point]"
5,COc1ccccc1N1CCN(S(=O)(=O)CCNC(=O)C23CC4CC(CC(C4)C2)C3)CC1,"inconclusive: 12.6 µM [inhibitor, single point]"
6,Cc1ccc(S(=O)(=O)Cn2nnnc2CN2CCCC3(CCCCC3)C2)cc1,inactive
7,O=[N+]([O-])c1ccc(/C=[N+](\[O-])[C@@H]2CCCC[C@@H]2/[N+]([O-])=C/c2ccc([N+](=O)[O-])o2)o1,"inconclusive: 2.82 µM [inhibitor, full curve]"
8,O=C(c1cc(-n2cnnc2)ccc1Cl)N1CCN(c2nc(-c3ccccc3)cs2)CC1,active: 10 µM
9,Cc1cccc(NC(=O)c2ccc3c(=O)n4c(nc3c2)CCCCC4)n1,active: 14.1 µM
10,Cc1ccn2cc(C(=O)Nc3cccc(C(=O)NC4CC4)c3)nc2c1,"inconclusive: 22.4 µM [inhibitor, single point]"
11,O=S1(=O)CCC(NC(=S)NC2CCS(=O)(=O)C2)C1 (centres undefined),inactive
12,CC(=O)Nc1ccc(Oc2cc(NC(C)=O)cc([N+](=O)[O-])c2)cc1,"inconclusive: 10 µM [inhibitor, partial curve, poor fit]"
13,Cc1ccc(Nc2nc(N)nc(-c3oc4ccccc4c3C)n2)cc1,"inconclusive: 7.08 µM [inhibitor, partial curve]"
14,CCOc1cccc2cc(-c3csc(NC(=O)CCC(=O)NCCN4CCCCC4C)n3)c(=O)oc12 (centres undefined),"inconclusive: 31.6 µM [inhibitor, single point]"
15,C=CC[C@H](CC(=O)N[C@H](CO)Cc1ccccc1)C(=O)N[C@@H](COC(=O)[C@@H](CC=C)CC(=O)OC(C)(C)C)Cc1c[nH]c2ccccc12,"inconclusive: 20 µM [inhibitor, single point]"
16,Cn1cnnc1SCc1ccc(C(=O)NN)cc1,"inconclusive: 22.4 µM [inhibitor, single point]"
17,Cc1ccc(C(=O)N2CCN(C3c4cccc5cccc(c45)C3NS(=O)(=O)c3ccccc3)CC2)cc1 (centres undefined),"inconclusive: 14.1 µM [inhibitor, single point]"
18,CN(C)C(=O)CSc1n[nH]c(=O)n1CCc1ccccc1,"inconclusive: 5.62 µM [inhibitor, single point]"
19,Cc1cccc(N2CCN(C(=O)c3ccc4c(c3)c(C)c(C)n4C)CC2C)c1 (centres undefined),"inconclusive: 22.4 µM [inhibitor, single point]"
20,Cc1ccc(NC(=O)COc2ccccc2C(N)=O)cc1S(=O)(=O)N1CCCCCC1,active: 5.01 µM
21,COC(=O)c1sc(NC(=O)c2ccoc2C)nc1C,"inactive and inconclusive: 10 µM [inhibitor, single point]"
22,Cc1cccc(-n2ncc3c2CCCC3NC(=O)CCc2ccncc2)c1C (centres undefined),"inconclusive: 31.6 µM [inhibitor, single point]"
23,Cc1oc(=O)c(NC(=O)c2ccc(Cl)cc2)cc1C(=O)c1ccccc1,"inconclusive: 31.6 µM [inhibitor, single point]"

row,SMILES,Potency
1,Cc1ccc(-n2c(SCC(N)=O)nc3c([nH]c4ccccc43)c2=O)cc1,"inconclusive: 8.91 µM [inhibitor, partial curve]"
2,Cc1ccc(Nc2nc(N3CCOCC3)c3ccccc3n2)cc1,"inconclusive: 22.4 µM [inhibitor, single point]"
3,COc1cc(CNC(C)C)ccc1OCC(=O)Nc1cccc2ccccc12,"inconclusive: 14.1 µM [inhibitor, single point]"
4,CCC(=O)N(Cc1ccco1)Cc1cc2cc3c(cc2[nH]c1=O)OCO3,inactive
5,Cc1cc(Br)ccc1SCC(=O)N1CCN(S(=O)(=O)c2ccccc2)CC1,"inconclusive: 14.1 µM [inhibitor, single point]"
6,O=C(Nc1ccnn1C1CCN(Cc2ccc(Cl)cc2)CC1)C1CCCC1,inactive
7,COC(=O)CCCC(=O)N1CCCC(C(=O)c2ccc(OC)cc2C)C1 (centres undefined),inactive
8,C=CCNC(=O)CN1N=C(c2ccc(C)cc2)CCC1=O,"inconclusive: 5.01 µM [inhibitor, single point]"
9,CCOc1cc(C=NN=C2c3ccccc3-c3ccccc32)ccc1O,"inconclusive: 12.6 µM [inhibitor, single point]"
10,O=S(=O)(c1ccc(NC(=S)N/N=C/c2ccc(N3CCOCC3)cc2)cc1)N1CCOCC1,inactive
11,CCCCCc1ccc(C(=O)CCCC)c(=S)[nH]1,"inconclusive: 17.8 µM [inhibitor, partial curve]"
12,Cc1c(OCC(=O)N2CCC(C(=O)O)CC2)ccc2c1oc(=O)c1ccccc12,inactive
13,Cc1ccc(-c2cc(C(F)F)n3ncc(C(=O)N4CCC5(CC4)OCCO5)c3n2)cc1,"inconclusive: 17.8 µM [inhibitor, partial curve, poor fit]"
14,O=C(Nc1ccccc1)NC1CCN(Cc2c(F)cccc2Cl)CC1,inactive
15,O=[N+]([O-])c1ccc(S(=O)(=O)NN=C2CCCCC2)cc1,inactive
16,O=C(NCc1ccc2c(c1)OCO2)c1c(F)c(F)c(F)c(F)c1F,"inconclusive: 10 µM [inhibitor, partial curve]"
17,Cc1c(N)cc[n+](CC(=O)c2ccccc2)c1C,active: 8.91 µM
18,COc1ccc(C2=CC(=O)C[C@H](c3ccc4c(c3)OCO4)C2)cc1,"inconclusive: 31.6 µM [inhibitor, single point]"
19,C[C@H]1[C@H](OC(=O)CCC(=O)NCc2ccc(C(=O)O)cc2)O[C@@H]2O[C@@]3(C)CC[C@H]4[C@H](C)CC[C@@H]1C24OO3,"inconclusive: 2.24 µM [inhibitor, partial curve]"
20,Cn1c(-c2ccccc2)cnc1SCc1nc2ccccc2c(=O)[nH]1,"inconclusive: 15.8 µM [inhibitor, single point]"
21,COc1ccc(NC(=O)C2CCCN(C(=O)c3ccc(Cl)cc3)C2)cc1Cl (centres undefined),"inconclusive: 8.91 µM [inhibitor, partial curve]"
22,COc1cc(C(=O)Nc2nnc(C)s2)cc(OC)c1OC,"inconclusive: 10 µM [inhibitor, single point]"
23,CC(/C=N/NC(=O)c1nnn(-c2nonc2N)c1C(C)C)=C\c1ccco1,"inconclusive: 7.94 µM [inhibitor, partial curve]"
